Whole data set: some 33,000 sequences, median “E-score (-0.5 to 0.5)” near -0.054, cut for the highest 2% near 0.39. The list shows a part of the results.
Each sequence was assayed against Ylr278c (UniProt Q05854) (assay: PBM E-score (8-mer binding enrichment) (E-score (-0.5 to 0.5)); higher = stronger / more preferred TF binding; most listed sequences are background and not binding sites). Settings: protein concentration: 200 nM; construct: GST-DNA-binding domain.
Summary of the method: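 Masliner-normalised scans of fluorescent anti-GST signal were the basis for scoring. That signal came from GST-tagged yeast transcription factors applied at about 100-200 nM to double-stranded universal all-10-mer Agilent arrays on fresh or once-stripped slides. Each ungapped eight-base word, pooled with its reverse complement, received an E-score from the Universal PBM Analysis Suite.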

Sequence	PBM E-score
GCTGCGCA	0.163
ACAAGGGA	-0.21
AGTAAGAG	-0.244
CACACCGC	0.107
AACATAGG	-0.121
TAAACTGA	-0.0238
GCGTCACA	-0.167
ACGTCGGC	0.239
CCTCCAAA	-0.14
ACCGCACA	-0.0956
ACCTATTC	0.0665
AAAGGCTA	-0.307
GATTCTAA	-0.182
GTCATTGA	-0.154
AAATCGGA	0.43
AAGTCCGG	0.481
ATCTATCG	-0.084
ACGGAGCT	0.395
ATTTTCTG	0.0498
AAGCCCCA	-0.203
ATAACTGC	-0.058
AGCAAGTC	-0.121
CGGACTGA	0.255
GTAACACA	-0.0154
AACAGTAG	-0.124

Sequence	PBM E-score
CGCCCCTA	0.129
CAAGAGAA	0.081
ACGACGTC	-0.0271
CGTACTGA	0.109
GGACTAAA	0.211
CGATCGGC	0.282
AAAGTCGC	0.146
AATCAGAG	-0.0351
ATGGGCAG	-0.296
CCCGAAGA	0.156
CCAAACGA	-0.0829
GCGAGAAC	0.148
TACGGCCA	0.0517
GCATCCGA	0.27
AGTCGACC	-0.00807
ACAGCACA	-0.0319
GCCCCGCA	0.168
CGGCTTTA	0.306
ACTTAGCT	-0.263
ATCTGTAA	0.019
AACTAACG	0.0425
ACCTGTCT	-0.132
GCCTAGGA	-0.153
CAATTGAG	0.0878
CTGCTTGC	-0.0607

Sequence	PBM E-score
ACACCCCG	0.241
CAGAATGA	-0.164
GAAATGAA	0.166
AACCATTG	-0.211
ATCCTTGC	-0.0916
CCAAAGCA	-0.107
AATTACCC	0.141
CCAGAACC	-0.164
CCCTAGCA	-0.13
GCTCTGCC	-0.124
CGACGAAG	0.116
CTATAGAC	-0.167
GTGTAGAA	-0.226
AGCTTGGG	-0.0608
GGTTTGCA	0.125
ACTACCTA	-0.00777
CATTGAGA	-0.119
GGATTCCC	0.185
GGGTTAAC	0.176
AGCAAACA	0.00793
CAGCGTCA	-0.128
CCAGGTCA	-0.253
TGGCTCAA	-0.253
AATCTGAT	0.0142
CCTCTTAC	-0.169

Sequence	PBM E-score
CGTTCAAA	0.0453
CATTGCGA	-0.0217
AGTTCCTG	-0.0874
GTGGTGAA	-0.0967
TGCAACCA	-0.255
CCTGGACA	-0.154
CCTAGTAC	-0.172
CTGCACCA	-0.159
CCAGGCAA	-0.071
CTTTTGTA	0.00311
AGCGAGAC	-0.119
CTCATGCC	-0.176
ACGACGGG	0.014
CAGTAACC	0.00497
GGTTATCA	-0.127
CTTCTGGC	-0.299
AACTTTGT	-0.0105
ATTCCCCA	-0.0758
CACGGGCA	0.0224
ATCACTTC	-0.0556
CCCTTAAC	-0.258
AGACCCTC	-0.0526
CGTGGAAG	0.0308
CGCCTTAA	-0.119
GGGGGACA	-0.203

Sequence	PBM E-score
CATTCACG	0.0541
GGTGTGGA	-0.0575
GGACCTAA	0.226
CGCCGTGA	0.172
CACGGGGC	0.152
AGAGGTCA	-0.0798
ATATAATA	-0.0463
GGGTAACA	-0.155
CACGCGTC	0.143
CGCCATGC	0.0273
AAGGGGGG	-0.394
ACTAGGGC	-0.239
CGCCGCCG	0.362
ATCCAAAG	-0.177
CACAGCGC	0.0802
GTCCTAAC	-0.0824
CAATCGTA	-0.163
CGGTCTAG	0.0736
GGAGGGCA	0.00619
AAAATACG	-0.0445
CAATTTCA	-0.137
ATGGATGC	-0.0459
CAGTACTG	-0.261
ATTAACCG	0.322
GACTCTAC	-0.144

Sequence	PBM E-score
TACTGGAA	-0.0153
AAGTTAGG	-0.0863
AGTGTCAG	-0.219
ACTCCATC	0.275
ACTCGTCA	-0.208
CTTAGGGA	-0.248
ACGTGCAT	-0.261
CTAGCACA	-0.191
TTCGACAA	-0.188
ACTTCCCC	0.00708
CCCCAACG	-0.00611
CGAGTAAC	-0.04
GGACCCTA	-0.0466
GCTGCGGA	0.314
GTGTATCA	-0.039
CAGCACAC	-0.238
ACAACAAG	-0.207
ACCAGTTA	-0.149
CGCTGTCA	-0.118
AATCCTCG	-0.144
AGTGTCTC	-0.076
CCGTTTAA	0.18
GATGTTGC	0.162
ACAGACTC	-0.109
GCTGCCAA	-0.105

Sequence	PBM E-score
CACCCACG	0.0222
ATATGGCA	-0.242
CACACAGG	-0.192
GTGTGTGA	-0.0812
GAATGGTA	-0.221
ATGGCAAC	-0.0198
AAATCGTA	-0.133
GTTCTTCA	-0.192
CACTGCAC	-0.211
AGTTCTTG	-0.115
CGGAATAA	0.433
ATGGTAAA	-0.0675
AAGATCGT	-0.168
CTTTTTAC	0.00387
CAGGGTCG	0.0987
CTCTTTTA	-0.327
AAAGATCC	0.0866
AGGTTCCG	0.289
TGCACAAA	-0.266
AGCCATAC	-0.407
CCCGGATC	0.403
CAATCTGA	-0.0967
CAGCTCAC	-0.16
CTTTGTCC	0.197
ACCAACAG	-0.174

Sequence	PBM E-score
ACCCCGCC	0.375
CCCGCCCA	0.243
AACCTGGT	0.0412
ACTAGCCT	-0.0654
ACCAGGAA	-0.0449
ACACCCCT	-0.227
AGTGGCGC	0.024
GCGTACCA	-0.188
GGCAGACC	-0.0495
AGGGTGTG	-0.0826
GAGTCGGC	0.196
CGTCAGAA	-0.25
CTCTTTCA	-0.101
ACCTTCGT	-0.119
AAATGCTT	0.0244
AATCCGCC	0.319
CCGATCGG	0.43
CTCCATGC	-0.0754
ACGTTAGT	-0.171
CCCCTTCA	-0.187
TCAGCACA	-0.175
ACGGATGA	0.0479
ATCCAGAT	-0.146
GTTCGGAA	0.403
GGCTAGGA	-0.334

Sequence	PBM E-score
CAGATCCG	0.368
AAATAGCC	-0.00231
CACAACTG	-0.273
GGCAGCAC	-0.15
CTTGGAAC	-0.146
GGTCCGGA	0.446
CGATGTTC	0.0923
CTATACAA	-0.155
TAATAATA	-0.0581
ATTGGTGC	0.162
GCGGCGCA	0.204
GAACAAGA	0.0112
GTTCTGAA	-0.223
CGGAGCGC	0.391
TAGGCTCA	-0.191
CAGCACCA	-0.214
CGGTCTAA	-0.0115
CGGGCGTA	0.178
TCTTGACA	-0.154
